{"source": "PubChem BioAssay AID1460", "about": "(National Center for Advancing Translational Sciences (NCATS), 2008)", "note": "Out of some 270,000 compounds screened, about 5,800 (2.1%) were called active. The shares of active, inactive and inconclusive entries below differ from those in the screen. The call rests on the fitted dose curve; in most records, active means well fitted inhibition curve with a large enough effect; inconclusive means small, poorly fitted or top-dose-only effect; inactive means flat fitted curve, though single readings scatter. Potencies beside an inconclusive call are fits to weak or partial responses and may not hold up. Potency means the concentration at half of the fitted maximal effect; tags describe the fitted curve by direction and shape.", "data": [{"target": "Microtubule-associated protein tau (Homo sapiens) (UniProt P10636)", "sequence (P10636 whole entry, looked up)": "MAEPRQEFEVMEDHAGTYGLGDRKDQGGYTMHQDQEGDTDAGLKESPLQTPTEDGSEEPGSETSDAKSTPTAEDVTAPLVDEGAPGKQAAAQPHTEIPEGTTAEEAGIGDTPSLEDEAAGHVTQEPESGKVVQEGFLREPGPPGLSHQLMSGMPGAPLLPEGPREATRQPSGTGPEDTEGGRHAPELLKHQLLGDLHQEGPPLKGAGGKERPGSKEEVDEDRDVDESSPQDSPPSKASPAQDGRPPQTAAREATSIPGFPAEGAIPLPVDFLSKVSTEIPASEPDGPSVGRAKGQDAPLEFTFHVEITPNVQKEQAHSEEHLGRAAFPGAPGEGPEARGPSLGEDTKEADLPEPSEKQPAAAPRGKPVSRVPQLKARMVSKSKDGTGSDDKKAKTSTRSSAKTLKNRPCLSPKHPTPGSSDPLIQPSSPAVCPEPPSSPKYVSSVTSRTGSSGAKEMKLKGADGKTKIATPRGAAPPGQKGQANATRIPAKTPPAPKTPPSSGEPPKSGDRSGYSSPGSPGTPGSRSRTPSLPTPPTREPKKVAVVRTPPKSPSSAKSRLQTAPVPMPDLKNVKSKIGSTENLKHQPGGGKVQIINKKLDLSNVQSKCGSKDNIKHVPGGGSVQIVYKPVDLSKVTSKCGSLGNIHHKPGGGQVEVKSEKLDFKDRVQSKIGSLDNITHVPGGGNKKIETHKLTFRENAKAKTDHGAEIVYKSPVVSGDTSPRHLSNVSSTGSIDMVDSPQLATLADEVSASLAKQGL", "test": "qHTS for Inhibitors of Tau Fibril Formation, Thioflavin T Binding; further: nearly all actives have a fitted effect of over 55% in size", "conditions": "recombinant tau K18 P301L, heparin-induced fibrillization, ThT fluorescence; series mostly up to 57.4 µM", "procedure,_shortened": "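ThT emission at 510 nm, taken 1 hr after adding 30 uM dye, quantifies aggregates formed when 20 uM heparin acts on human tau K18 P301L for 6 hr at 37 C.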", "values": [{"smiles": "CCc1ccc(OCCNC(=O)c2cc(SC)ccc2Cl)cc1", "Potency": "inconclusive: 28.2 µM [inhibitor, single point]"}, {"smiles": "N#C/C(=C(/O)COC(=O)c1ccc(O)cc1)c1nc2ccccc2[nH]1", "Potency": "inconclusive: 22.4 µM [inhibitor, partial curve]"}, {"smiles": "CCC(=O)Nc1ccc(Cl)c(NC(=O)c2cccc(OC)c2)c1", "Potency": "inactive"}, {"smiles": "CO[C@H]1C=CO[C@@]2(C)Oc3c(C)c(O)c4c(O)c(c5c(c4c3C2=O)NC2(CCN(CC(C)C)CC2)N=5)=NC(=O)C(C)=CC=C[C@H](C)[C@H](O)[C@@H](C)[C@@H](O)[C@@H](C)[C@H](OC(C)=O)[C@@H]1C", "Potency": "inconclusive: 25.1 µM [inhibitor, partial curve]"}, {"smiles": "COc1ccccc1Nc1nc(N)nc(CSC(=S)N2CCC(C)CC2)n1", "Potency": "inactive"}, {"smiles": "CCCSc1oc(-c2ccco2)nc1S(=O)(=O)c1ccc(Br)cc1", "Potency": "inconclusive: 44.7 µM [inhibitor, single point]"}, {"smiles": "Cc1cccc(NC(c2ccccc2C)c2ccc3ccc(C)nc3c2O)n1", "note": "(stereo not drawn)", "Potency": "inconclusive: 14.1 µM [inhibitor, partial curve]"}, {"smiles": "CCOC(=O)N1CCN(CC(O)COc2ccccc2C(C)(C)C)CC1", "note": "(stereo not drawn)", "Potency": "inactive"}, {"smiles": "COC(=O)c1ccc(C(=O)OC)c(NC(=S)N2CCN(C)CC2)c1", "Potency": "inactive"}, {"smiles": "COC(=O)c1c(-c2cccs2)csc1NC(=O)c1ccc(OC)c(OC)c1", "Potency": "inconclusive: 20 µM [inhibitor, single point]"}, {"smiles": "O=[N+]([O-])c1cccnc1N1CCC(c2cc(-c3cccc(C(F)(F)F)c3)n[nH]2)CC1", "Potency": "active: 14.1 µM"}, {"smiles": "Cc1ccc(Nc2nc(N)nc(CN3CCN(c4ccccc4)CC3)n2)cc1Cl", "Potency": "inconclusive: 20 µM [inhibitor, single point]"}, {"smiles": "CCCn1c(=O)c2[nH]c(-c3ccc(S(=O)(=O)O)cc3)nc2n(CCC)c1=O", "Potency": "inactive"}, {"smiles": "CCN1C(c2ccccc2)=C(c2ccccc2)S/C1=C/C=C1\\SC(=S)N(C)C1=O", "Potency": "inconclusive: 3.55 µM [inhibitor, full curve]"}, {"smiles": "Cc1oc(-c2cccs2)nc1CS(=O)CC(=O)NC1CCCCCC1", "note": "(stereo not drawn)", "Potency": "inconclusive: 14.1 µM [inhibitor, partial curve]"}, {"smiles": "S=C(Nc1cccc(Cl)c1Cl)Nn1cnnc1", "Potency": "inconclusive: 22.4 µM [inhibitor, partial curve, poor fit]"}, {"smiles": "Cc1cc(C)n(-c2nc3cc(Cl)ccc3nc2Nc2ccc(CC(=O)O)cc2)n1", "Potency": "inconclusive: 22.4 µM [inhibitor, partial curve]"}, {"smiles": "CN1C(=O)/C(=C/C=C2\\SCCN2C)OC1=S", "Potency": "inconclusive: 10 µM [inhibitor, partial curve]"}]}]}
